About 800 (1.6%) of roughly 50,000 compounds showed an effect of 50% or more. This is one part of the list.

The target of the test is Bcl-2-like protein 10 (Homo sapiens) (UniProt Q9HD36). The test can be described thus: Phenotype converters, Bcl-B/TR3 peptide binding displacement, primary biochemical FP (AID 1240).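 Further: 0% = Bcl-B with tracer peptide and DMSO and 100% = tracer peptide lacking Bcl-B.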 The settings on record: GST-Bcl-B / FITC-TR3 peptide fluorescence polarization; stronger effect = higher value; compound at 3.75 mg/L. For orientation: In fluorescence polarisation assays a small probe gives low polarisation when free and higher when bound to something large.
Sequence of UniProt Q9HD36 (Q9HD36 whole entry, looked up): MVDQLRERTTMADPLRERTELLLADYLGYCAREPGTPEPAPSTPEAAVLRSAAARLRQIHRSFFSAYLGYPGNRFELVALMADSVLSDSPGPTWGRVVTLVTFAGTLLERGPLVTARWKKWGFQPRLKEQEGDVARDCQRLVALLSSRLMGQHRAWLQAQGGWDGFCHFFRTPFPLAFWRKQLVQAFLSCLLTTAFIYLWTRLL
As for `COc1ccc(C(C)NC(=O)c2ccc(C(C)(C)C)cc2)cc1` (centres undefined), the displacement is -4.4%.
Then `COc1ccc(N(CC(=O)Nc2cccc(Br)c2)S(=O)(=O)c2ccc(C)cc2)cc1`, with 5%; and `CCOC(=O)CNC(=O)c1cc([N+](=O)[O-])ccc1Cl`, with 14.5%.
The figure for `O=C(Nc1ccc2c(c1)oc1ccccc12)c1cc2ccccc2o1` is 2.4%.
Then `COc1ccc(S(=O)(=O)Nc2ccc([N+](=O)[O-])cc2)cc1`, with 0.5%; and `CCOC(=O)C1=C(c2ccccc2)NC(=O)NC1c1ccc(CC)cc1` (centres undefined), with -12.8%.
As for `O=C1NN(c2ccc(I)cc2)C(=O)/C1=C\c1ccc(O)cc1O`, the displacement was 20.4%.
Then `COc1ccc(-c2cc(C(F)(F)F)n3nc(-c4ccccc4)cc3n2)cc1`, with -14.9%; and `COc1cccc(N2C(=O)NC(=O)C(=Cc3ccc(O)cc3)C2=O)c1`, with 5.3%; and `O=S(=O)(Cc1ccc(Cl)cc1)CC(O)COCc1ccccc1` (centres undefined), with -0.3%.
For the molecule `CCCCOc1ccc(C(=O)O/N=C(/c2ccncc2)c2ccc([N+](=O)[O-])cc2)cc1`, the displacement was 10.5%.
Turning to `Cc1ccc2c(c1)C(C)(c1ccccc1)CC(C)(C)N2C(=O)CN1C(=O)C2CCCCC2C1=O` (centres undefined), the displacement amounted to 3.9%.
The figure for `COC(=O)COc1ccc(C=C2C(=O)NC(=S)NC2=O)cc1OC` is 8.3%; for `Cc1cc(C)n(C(=O)c2cc(F)c(F)cc2Cl)n1` it is 13.9%; for `CC(=O)Oc1ccc(-c2cccc(C(=O)NC(C)(C)C)c2)cc1` it is 11.7%.
`CCc1ccccc1NC(=O)c1c(NC(=O)c2ccccc2Br)sc2c1CCC2`: the displacement is -4.1%.
As to `Cc1ccc(C(=O)COc2cc(OCC(=O)c3ccc(C)cc3)c3c(C)cc(=O)oc3c2)cc1`, the displacement was 10%.
The figure for `C1CCC(N2CCC(N3CCCCC3)CC2)CC1` is -6.5%.
Then `CCCCOc1ccc(/C=C2\SC(=S)N(C(C)C(=O)O)C2=O)cc1OC` (centres undefined), with 3.8%.
`Cc1ccc(N/C(N)=N/c2nc(C(F)(F)F)cc(=O)[nH]2)cc1`: the displacement stood at 4.4%.
The figure for `COc1cc(NC(=O)COc2ccccc2C)cc([N+](=O)[O-])c1` is 9%; for `COc1cc(C=C2C(=O)NC(=O)NC2=O)ccc1OS(=O)(=O)c1ccc([N+](=O)[O-])cc1` it is 10.1%; for `O=[N+]([O-])c1cccc(/C=N/N2CCN(c3ccccn3)CC2)c1` it is 0.1%.
Turning to `Cc1cc(C=C2C(=O)c3ccccc3C2=O)c(C)n1-c1cccc([N+](=O)[O-])c1`, the displacement came out at 11.8%.
Then `COc1ccc(C)cc1NC(=O)c1ccc([N+](=O)[O-])c(C)c1`, with -5.8%; and `CC(C)(C)NC(=O)/C(=C\c1cccs1)NC(=O)c1ccccc1`, with 12.7%; and `O=C(CCc1ccccc1)N1CCN(c2nc3ccc([N+](=O)[O-])cc3s2)CC1`, with 17.9%.
Then `Cc1cc(C)n(C(=O)c2ccc(Cl)c([N+](=O)[O-])c2)n1`, with 3.1%; and `COc1ccc(/C=N/c2oc(C)c(C)c2C#N)cc1`, with 7.9%.
The figure for `O=C1c2ccccc2-c2ccc(S(=O)(=O)N3CCOCC3)cc21` is -18%; for `O=C1ON=C(c2ccccc2)/C1=C/c1cccnc1` it is -9.2%; for `CCCOc1cccc(C2Nc3ccccc3NC3=C2C(=O)CC(C)(C)C3)c1` (centres undefined) it is 10.8%.
As for `O=C(Oc1cccc2ccccc12)c1ccc(Cl)cc1Cl`, the displacement turned out to be 13.5%.
Then `Cc1ccc(S(=O)(=O)Nc2ccc(S(=O)(=O)N3CCOCC3)cc2)cc1[N+](=O)[O-]`, with 7.8%.
With `COc1ccc(/C=C/C(=O)O)cc1S(=O)(=O)Nc1cccc(C(=O)O)c1`, the displacement turned out to be 3.4%.
In the case of `CN(C)c1ccc(N2C(=O)C=CC2=O)cc1`, the displacement was determined as 8.9%.
As for `Cc1c(C(=O)NS(=O)(=O)c2ccccc2Cl)c(=O)n(-c2ccccc2)n1C`, the displacement was 8.6%.
Then `COc1ccc(C(=O)Nc2cc3oc4ccccc4c3cc2OC)c(OC)c1`, with -5.8%.
Turning to `Cc1ccc(S(=O)(=O)CCSc2cccc(C(=O)O)c2)cc1`, the displacement was -5.9%.
With `Cc1ccc(CC2S/C(=N\N=C\c3ccc(O)cc3)NC2=O)cc1` (centres undefined), the displacement is -10.2%.
The figure for `N#CC1=C(N)Oc2n[nH]c(-c3ccccc3)c2C1CCc1ccccc1` (centres undefined) is -10.4%.
With `O=C(O)C1C2C=CC(O2)C1C(=O)N1CCN(C(c2ccccc2)c2ccccc2)CC1` (centres undefined), the displacement is -3.2%.
Take `CC(=O)n1nc(C)c2c1CC(C)(C)CC2=O`: the displacement is -0.9%.
The figure for `O=C(CN(c1cccc([N+](=O)[O-])c1)S(=O)(=O)c1ccccc1)NCC1CCCO1` (centres undefined) is -4.4%; for `CCOc1ccccc1NC(=O)C(=O)NCc1ccc(F)cc1` it is 10.2%.
The figure for `O=C(Nc1ccc(Cl)c(C(F)(F)F)c1)c1ccc(Cl)c([N+](=O)[O-])c1` is 15.9%; for `Cc1ccc(S(=O)(=O)NNC(=O)c2c[nH]c3ccccc23)cc1` it is -0.3%; for `O=C1c2ccccc2/C(=N/N=C/c2ccccc2)C1C(=O)C(c1ccccc1)c1ccccc1` (centres undefined) it is 5.1%.
The figure for `CCN(CC)CCCOc1ccc(I)cc1` is 2.6%.
Consider `Cc1ccc(N2C(=O)CC(NCc3ccc(F)cc3)C2=O)cc1` (centres undefined), for which the displacement stood at 2.8%.
Turning to `Ic1ccc(-c2csc(Nc3ccc(Oc4ccccc4)cc3)n2)cc1`, the displacement is -8.2%.
`O=[N+]([O-])c1ccc(/C=N/Nc2ccccn2)o1`: the displacement stood at 0.6%.
Take `CN1CCN(CC(O)COc2ccc(C(C)(C)C)cc2)CC1` (centres undefined): the displacement was -4.7%.
The figure for `O=C(O)c1c(F)c(F)c(F)c(F)c1-c1ccc(Cl)cc1` is 11.8%; for `COc1ccc(CNC(=O)CN(Cc2ccccc2)S(=O)(=O)c2ccccc2)cc1` it is 4.5%.
For `C=CCCC(=O)Nc1ccc(Br)cn1`, the displacement is -2.3%.
In the case of `O=C(/C=C/c1ccc(-c2ccccc2)o1)c1ccco1`, the displacement was determined as 1.1%.
In the case of `O=C(c1ccc(S(=O)(=O)N2CCOCC2)cc1)N1CCCc2ccccc21`, the displacement came out at 28%.
Consider `CC(/C=C/c1ccccc1)=N\N=C1/NC(=O)CS1`, for which the displacement is -10.9%.
Regarding `COc1ccc(/C=N/NC(=O)CSCC(=O)Nc2ccccc2)cc1OC`, the displacement was -2.7%.
The figure for `O=C1N=c2ccccc2=C1c1sc(Nc2cccc(O)c2)nc1O` is 26.1%.
On to `COc1cccc(NC(=S)NC(NC(=O)Cc2ccccc2)C(Cl)(Cl)Cl)c1` (centres undefined), for which the displacement is -6.2%.
As for `Cc1cc(/C=N/O)c(C)n1-c1ccccc1`, the displacement stood at 11.4%.
On to `CC(NC(=O)NC(=O)c1cccc([N+](=O)[O-])c1)C1CC1` (centres undefined), for which the displacement is 7.6%.
The figure for `CC(C)(C)c1ccccc1OCC(O)CN1CCN(Cc2ccccc2)CC1` (centres undefined) is -5.3%; for `O=[N+]([O-])c1ccc(/C=N\Nc2ccccc2[N+](=O)[O-])o1` it is -14.2%; for `C=CCN1C(=O)/C(=C\c2ccc(OCC(=O)O)cc2)C(=O)NC1=S` it is 0.1%.
Take `CC(=O)Nc1ccc(Nc2nc(-c3ccc(Br)cc3)cs2)cc1`: the displacement came to 14.5%.
The figure for `CN(C)C=Nc1c(C(=O)NCc2ccccc2)c2n(c1C#N)CCC2` is -12.5%.

The values are drawn from PubChem BioAssay AID1240 (Sanford-Burnham Center for Chemical Genomics, 2008).
